# Source: PubChem BioAssay AID2675 (National Center for Advancing Translational Sciences (NCATS), 2010)
# Values joined by “and” are separate entries in the source; they are usually repeats but may differ in a detail not shown here. Equal values may be shown once. Screen size: about 280,000 compounds; about 100 (0.036%) were called active. The inconclusive results got no clear call from the source; some entries with a clear call stand among them for comparison. Calls follow the shape of the dose curve; as a rule, active = well fitted inhibition curve with a large enough effect in the signal ratio, with a control signal flat (not every such curve was filed as active); inconclusive = small, poorly fitted or top-dose-only effect, or effect the other way, or a change in a side signal; inactive = no such curve, though single readings can be large or run the other way; the % refers to the signal ratio. Where the call is inconclusive, the potency comes from a doubtful curve fit. A note “side channel” means that the fit belongs to a control or component signal, not to the main read-out.
# Molecular target: Muscleblind-like protein 1 (Homo sapiens) (UniProt Q9NR56)
# UniProt Q9NR56, sequence (Q9NR56 whole entry, looked up): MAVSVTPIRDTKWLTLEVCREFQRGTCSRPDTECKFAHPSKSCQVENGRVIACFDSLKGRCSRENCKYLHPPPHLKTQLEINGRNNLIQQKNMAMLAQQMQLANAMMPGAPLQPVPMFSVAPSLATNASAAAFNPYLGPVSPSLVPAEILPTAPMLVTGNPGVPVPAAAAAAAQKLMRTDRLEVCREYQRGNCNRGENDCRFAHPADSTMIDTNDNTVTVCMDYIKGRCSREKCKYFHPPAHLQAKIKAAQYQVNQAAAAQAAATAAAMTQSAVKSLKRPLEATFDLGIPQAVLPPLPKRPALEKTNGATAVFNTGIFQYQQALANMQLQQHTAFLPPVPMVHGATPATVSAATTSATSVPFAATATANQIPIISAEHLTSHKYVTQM
# Test: qHTS Assay for Inhibitors of MBNL1-poly(CUG) RNA binding
# Conditions: TR-FRET MBNL1-His/biotin-(CUG)12 binding, 665/545 ratio; series mostly up to 57.5 µM
# Method in brief: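 Compound titration spanned 92 nM–58 uM against the MBNL1-His/biotin-(CUG)12 complex. After 60 min at room temperature with 5 nM streptavidin-XL665 and 0.055 ng/ul terbium anti-His, ratiometric 665/545 nm emission (Ex 340 nm) normalized to controls.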
# Potency is read from the fitted curve at half-maximal effect; tags tell the direction and shape of the fitted curve or compound fluorescence and quenching.
row,SMILES,Potency
1,COC(=O)Cn1ncc2c(C)n(Cc3ccccc3)c(C)c2c1=O,"inconclusive: 0.891 µM [quencher, side channel, single point]"
2,Cc1cc(OC(=O)c2cccc(Br)c2)c([N+](=O)[O-])c(=O)[nH]1,inactive
3,CCOc1ccc(NC(=O)CCCCCN2C(=O)[C@@H]3Cc4ccccc4CN3C2=O)cc1,inactive
4,Cc1cc(F)ccc1NCc1cc2c(cc1[N+](=O)[O-])OCO2,"inconclusive: 3.55 µM [quencher, side channel, full curve, poor fit]"
5,O=C(Cn1cnc([N+](=O)[O-])n1)NCc1ccccc1,"inconclusive: 35.5 µM [quencher, side channel, single point]"
6,CC1=C(CC(=O)O)c2cc(F)ccc2/C1=C\c1ccc(S(C)=O)cc1 (stereo not given),"inconclusive: 17.8 µM [quencher, side channel, partial curve] and inconclusive: 7.08 µM [quencher, side channel, partial curve]"
7,N#C/C(=C/c1ccc(Br)o1)C(N)=O,"inconclusive: 8.91 µM [quencher, side channel, partial curve, poor fit]"
8,C=CCNC(=O)/C(C#N)=C/c1ccc(C)o1,"inconclusive: 28.2 µM [quencher, single point]"
9,Cc1ccc(NS(=O)(=O)c2cccc([N+](=O)[O-])c2)nc1,"inconclusive: 17.8 µM [quencher, side channel, partial curve]"
10,N#CCCNS(=O)(=O)c1ccc(C(=O)OCC2CCCCC2)cc1,inactive
11,Nc1nc2c(c(=O)[nH]1)C(c1ccccc1)C1=C(N2)c2ccccc2C1=O (stereo not given),"inconclusive: 7.94 µM [quencher, side channel, partial curve, poor fit]"
12,O=C(Nc1ccc(N2CCN(C(=O)c3cccs3)CC2)cc1)c1ccc([N+](=O)[O-])o1,"inconclusive: 12.6 µM [quencher, side channel, partial curve]"
13,CCN1C/C(=C\c2cccc([N+](=O)[O-])c2)C(=O)/C(=C/c2cccc([N+](=O)[O-])c2)C1,"inconclusive: 28.2 µM [quencher, side channel, single point]"
14,O=C(Nc1cc2c(oc1=O)CCCC2=O)c1ccc(Cl)cc1,"inconclusive: 15.8 µM [quencher, side channel, partial curve]"
15,CN1CCN(c2ccccc2NC(=O)c2ccc([N+](=O)[O-])cc2Cl)CC1,"inconclusive: 10 µM [quencher, side channel, partial curve]"
